# Laboratory results as given in paper PMC4336329 (PLoS ONE, 2015).
# Screen size: about 310,000 compounds; about 2,200 (0.71%) showed an effect of 50% or more. Effects have a minus sign here. Some of the results follow.
# Biological target: human ether-à-go-go-related gene (hERG) potassium channel (human, UniProt Q12809)
# Assay: primary screen, population patch clamp on CHO cells stably expressing hERG
# human ether-à-go-go-related gene (hERG) potassium channel, sequence (Q12809 whole entry, looked up): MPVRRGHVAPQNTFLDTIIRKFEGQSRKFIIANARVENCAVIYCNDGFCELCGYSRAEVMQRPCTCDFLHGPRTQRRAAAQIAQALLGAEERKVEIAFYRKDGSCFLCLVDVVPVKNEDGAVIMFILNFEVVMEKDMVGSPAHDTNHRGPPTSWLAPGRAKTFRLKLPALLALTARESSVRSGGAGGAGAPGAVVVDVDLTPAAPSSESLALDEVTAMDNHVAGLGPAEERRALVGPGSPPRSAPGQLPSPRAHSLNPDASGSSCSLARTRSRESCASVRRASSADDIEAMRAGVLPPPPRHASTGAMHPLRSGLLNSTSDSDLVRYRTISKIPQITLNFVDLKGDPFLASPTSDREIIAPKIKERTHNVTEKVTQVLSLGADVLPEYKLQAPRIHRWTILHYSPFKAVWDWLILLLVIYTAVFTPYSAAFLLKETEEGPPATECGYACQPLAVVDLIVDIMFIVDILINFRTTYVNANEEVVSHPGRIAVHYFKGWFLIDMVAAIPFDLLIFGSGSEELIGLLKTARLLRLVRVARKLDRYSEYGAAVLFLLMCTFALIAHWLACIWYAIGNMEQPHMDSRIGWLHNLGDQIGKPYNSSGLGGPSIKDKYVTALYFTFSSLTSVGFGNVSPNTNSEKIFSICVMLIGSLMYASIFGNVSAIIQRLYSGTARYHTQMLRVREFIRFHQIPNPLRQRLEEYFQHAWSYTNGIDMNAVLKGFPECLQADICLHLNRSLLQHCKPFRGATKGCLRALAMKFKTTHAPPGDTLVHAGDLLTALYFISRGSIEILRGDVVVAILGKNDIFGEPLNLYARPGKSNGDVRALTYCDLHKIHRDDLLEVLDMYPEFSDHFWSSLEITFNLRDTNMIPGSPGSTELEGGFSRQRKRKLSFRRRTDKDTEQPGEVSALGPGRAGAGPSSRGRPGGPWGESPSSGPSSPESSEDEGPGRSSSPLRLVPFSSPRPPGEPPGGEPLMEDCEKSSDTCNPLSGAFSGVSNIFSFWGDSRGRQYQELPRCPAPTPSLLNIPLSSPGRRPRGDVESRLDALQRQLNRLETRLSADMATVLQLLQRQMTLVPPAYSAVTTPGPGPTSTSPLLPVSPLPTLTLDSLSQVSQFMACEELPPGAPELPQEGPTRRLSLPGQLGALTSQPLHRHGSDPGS
row,Structure (SMILES),"hERG current change (%, negative = inhibition) at 1uM"
1,O=c1ccccn1Cc1c(F)cccc1Cl,-7.73%
2,O=C(Nc1nnc(COc2ccc(F)cc2)s1)c1cccs1,5.19%
3,CC1CCCN(CC(=O)Nc2ccc(S(=O)(=O)N3CCCCCC3)cc2)C1 (stereo not drawn),-1.45%
4,O=C(NCc1cccc(Br)c1)c1cc(-c2ccccc2)nn1CC1CC(c2cccnc2)=NO1 (stereo not drawn),1.86%
5,O=S(=O)(/N=C(/NNS(=O)(=O)c1ccccc1)c1ccccc1)c1ccccc1,4.07%
6,Cc1nn(-c2ccccc2)c(C)c1NC(=O)COC(=O)c1cccc(OC(F)F)c1,1.97%
7,COc1ccc(NC(=S)NNC(=O)c2ccc(S(=O)(=O)N3CCOCC3)cc2)cc1,25.4%
8,Cc1cc2cc(CNS(=O)(=O)c3ccccc3)ccc2n1C,6.19%
9,CCOC(=O)C(Cc1ccccc1)C(=O)NCc1ccccc1 (stereo not drawn),9.5%
10,CCOC(=O)CC(=O)Nc1ccccc1C(=O)O,2.15%
11,CC(C)Cc1c(O)nc(SCC(=O)N2CCCCCC2)[nH]c1=O,10.9%
12,Cn1c(=NC(=O)CN2C(=O)C3CC=CCC3C2=O)sc2ccccc21 (stereo not drawn),15.7%
13,Cc1ccc(S(=O)(=O)CCC(=O)OCC(=O)NCCc2ccccc2)cc1,9.42%
14,CCOC(=O)C1CCN(C(=O)CN(c2ccc3c(c2)OCO3)S(C)(=O)=O)CC1,1.2%
15,Cn1nc(C(F)(F)F)cc1C(=O)Nc1ccc(Cl)cc1,11%
16,COc1cccc(C2/C(=C(\O)c3ccc4c(c3)OCCO4)C(=O)C(=O)N2CCCN2CCOCC2)c1OC (stereo not drawn),14.2%
17,CCOC(=O)COc1ccc2c(=O)cc(-c3ccccc3)oc2c1,9.94%
18,FC(F)(F)c1nnc2ccc(N3CCOCC3)nn12,11.9%
19,CN1CCN(CC(=O)Nc2ccccc2Sc2ccccc2)CC1.O=C(O)C(=O)O,-26.6%
20,COC(=O)N[C@H](c1ccccc1)[C@@]1(C)C[C@@H]1[C@@H](C)C(=O)Nc1ccc2ccccc2c1,15.5%
21,CCCCCC(O)(c1ccc(OCC)cc1)C(CN1CCOCC1)c1ccccc1.Cl (stereo not drawn),9.47%
22,COCCCn1c(SCC(=O)Nc2ccc(NC(=O)c3ccco3)c(OC)c2)nc2ccccc2c1=O,-0.148%
23,CC1CC(C)CN(C2CCCCC2NS(=O)(=O)c2ccc(Cl)cc2)C1 (stereo not drawn),-12.7%
24,Cc1cccc(OCc2nnc(SCn3nnc4ccccc4c3=O)o2)c1,-8.41%
